The values below come from the supplement of paper PMC12632987.

Whole data set: some 2,300 sequences, median “median log2 fold change of GCK-ALFA target abundance (FLAG IP / Myc IP barcode read proportion)” near 0.095, cut for the lowest 2% near -0.47. Some of the results follow.

B1: LC3A_141_388 (protein)
chain: MKKEFKYTADTNTVQEIFDFFDEVEKEIKEMIEKSGGKPVKVKVKLTGTNPKTGEKKVIEEEFTVTKENVSMAVEGIAIEAVSLLDEVGGTIEIEVELEV
B2: LC3A_28_1305 (protein)
chain: SKLKKQFEEAKKKVEEAAAKGEPVVVTIEITAEEAEKELEEILELLEELGKVASKAPGATIIIDLDENVKPELQQKILDTAEKIEEKYPNVTVIIAIEDN
B3: LC3A_28_1126 (protein)
chain: SARKEAWEKAFEEAKKLAEKGEYVVAEFTATGKDTQEDIDYLIEVIEKAAKYLSEKGQSSILLDIDGSLPEEYRNYVIDKADEIEKKYPSVNIVIALEED
B4: LC3A_132_271 (protein)
chain: SEEKLQAAKEEIFAILDEIVDLLVAGEDPWPAITRLDETARKHAKELSLEDTEKLVEEAEAHARRLFAERADPNDPEARRVLDHIEMLLDSVLIEKELES
B5: LC3A_28_1000 (protein)
chain: SELEKQLEEALAEAKEAAARGEPVVITITVSGKADEEDIEKIIEAMREIAEILKDIPGSAIIVDIDSKLPQELRDKLFEAGEEIEEEYPNVTVIFALDEE
B6: LC3A_free_8_2481 (protein)
chain: GSEELAKALVEALDKAEEEIIKKAKELGKSRLDILELELEFGSIIADVISNRDKSPEEILKTLKDGLERLIEIAKEIGEEIAALVKEKAEEILAEAEKLL
B7: LC3A_132_295 (protein)
chain: MEEKAEKYLKELKALIAAAKANIDDDAKVTALLKEIEAKIEEAEKELTPEEVAKVFEEVADELWALSQVFDAAGKEQLALEADGLAIEAASLALRAKEKI
B8: LC3A_28_710 (protein)
chain: MEIEENIKKALEEAKEAAEKGEEVVIEIKIPGDATEEDIEKVIKALEEIAEILKDLPFAAIIVDVDGKVKQEHIDKIADKAEEIEKKYPNVTVIIALEEE

The experiment has as its target MAP1LC3A, Q9H492. The experiment can be described thus: median log2 fold change of GCK-ALFA target abundance (FLAG IP / Myc IP barcode read proportion) (log2 ratio); each designed protein is fused to an ALFA-tag nanobody in HEK293 cells to bring the named protein to FLAG-tagged glucokinase (GCK); Myc marks an untargeted standard; higher = target protein stabilised (more abundant). The note with it: target protein: 3xFLAG-MCP-GCK-ALFA reporter; HEK293 landing pad (RPLP). A digest of the protocol: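 The readout is target abundance, the per-binder median log2 ratio of FLAG to Myc barcode read proportions. It came from HEK293 landing-pad cells carrying a recombined ALFA-nanobody-fused binder library, induced with 2 μg mL^−1 doxycycline and transfected with a plasmid for a FLAG-tagged target and a Myc-tagged standard. After 48 h, lysates were immunoprecipitated with anti-FLAG and anti-Myc, and circular RNA barcodes were reverse transcribed, amplified and sequenced. Each barcode needed a proportion of at least 10^−7 in both replicates and each binder at least 3 barcodes per replicate, a pseudocount of 10^−6 was added, and the replicates were pooled.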
In the case of B1, the “median log2 fold change” value turned out to be 0.41.
For B2 the value was 0.305.
For B3 the value was -0.45; for B4, 0.167.
In the case of B5, the “median log2 fold change” value was -0.107.
In the case of B6, the “median log2 fold change” value was 0.111.
For B7 the value was 0.0471; for B8, -0.149.
